Experimental data reported in patent US8592383B2, “Cycloalkyl-fused tetrahydroquinolines as CRTH2 receptor modulators” (Merck Sharp & Dohme Corp., priority 2011, dated 2013).

molecular target: T1, hCRTH2 (Homo sapiens, UniProt Q9Y5Y4); assay: biochemical; conditions: Ki (nM), Table A; Radioligand Binding Assay A, [3H]PGD2, HEK-hCRTH2 membranes
T1 sequence (Q9Y5Y4 1-395): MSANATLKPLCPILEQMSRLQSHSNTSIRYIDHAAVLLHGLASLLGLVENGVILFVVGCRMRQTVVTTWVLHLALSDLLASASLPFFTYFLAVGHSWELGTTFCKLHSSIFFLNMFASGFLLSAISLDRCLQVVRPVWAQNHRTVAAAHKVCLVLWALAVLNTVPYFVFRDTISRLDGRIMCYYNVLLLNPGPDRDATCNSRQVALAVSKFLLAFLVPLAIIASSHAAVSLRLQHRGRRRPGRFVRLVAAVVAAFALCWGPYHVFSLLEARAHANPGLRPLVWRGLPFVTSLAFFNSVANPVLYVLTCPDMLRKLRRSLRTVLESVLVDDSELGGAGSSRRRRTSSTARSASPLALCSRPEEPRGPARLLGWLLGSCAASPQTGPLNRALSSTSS

Ki	Structure (SMILES)
1 to 5 nM	O=C(O)CCC(=O)N(C1CC1)C1c2ccc(F)cc2N(C(=O)OCc2ccccc2)C2CCCC21 (single isomer, unassigned) [compound 150, 4-(phenylmethyl) cis, cis-[(3-carboxy-1-oxopropyl)cyclopropylamino]-6-fluoro-1,2,3,3a,9,9a-hexahydro-4H-cyclopenta[b]quinoline-4-carboxylate]
5.1 to 20 nM	O=C(O)[C@H]1CCN1C(=O)N(C1CC1)C1c2cc(F)c(F)cc2N(C(=O)OCc2ccccc2)C2CCC21 (single isomer, unassigned) [compound 151]
5.1 to 20 nM	O=C(O)CCC(=O)N(C1CC1)[C@H]1c2cc(F)ccc2N(C(=O)c2nc3ccccc3s2)[C@H]2CCC[C@H]21 (single isomer, unassigned) [compound 152]
20.1 to 200 nM	O=C(O)CCC(=O)N(C1CC1)[C@@H]1c2cc(-c3ccc(F)cc3)ccc2N(C(=O)c2ccc(OC(F)(F)F)cc2)[C@@H]2CCC[C@@H]21 (single isomer, unassigned) [compound 153, 4-(cyclopropyl((cis, cis)-7-(4-fluorophenyl)-4-(4-(trifluoromethoxy)benzoyl)-2,3,3a,4,9,9a-hexahydro-1H-cyclopenta[b]quinolin-9-yl)amino)-4-oxobutanoic acid]
5.1 to 20 nM	O=C(O)CCC(=O)N(C1CC1)C1c2ccc(F)cc2N(C(=O)OCc2nc3ccccc3s2)C2CCCC21 (single isomer, unassigned) [compound 154, 4-(((cis, cis)-4-((benzo[d]thiazol-2-ylmethoxy)carbonyl)-6-fluoro-2,3,3a,4,9,9a-hexahydro-1H-cyclopenta[b]quinolin-9-yl)(cyclopropyl)amino)-4-oxobutanoic acid]
201 to 7500 nM	CC(O)c1ccc2c(c1)C(N(C(=O)CCC(=O)O)C1CC1)C1CCC1N2C(=O)OCc1ccccc1 (single isomer, unassigned) [compound 155, 4-((cis, cis-3-((benzyloxy)carbonyl)-6-(1-hydroxyethyl)-1,2,2a,3,8,8a-hexahydrocyclobuta[b]quinolin-8-yl)(cyclopropyl)amino)-4-oxobutanoic acid]
20.1 to 200 nM	O=C(O)CCC(=O)N(C1CC1)C1c2cc(C(F)F)ccc2N(C(=O)OCc2ccccc2)C2CCC21 (single isomer, unassigned) [compound 156, 4-((cis, cis-3-((benzyloxy)carbonyl)-6-(difluoromethyl)-1,2,2a,3,8,8a-hexahydrocyclobuta[b]quinolin-8-yl)(cyclopropyl)amino)-4-oxobutanoic acid]
1 to 5 nM	O=C(O)CCC(=O)N(C1CC1)C1c2ccccc2N(C(=O)c2ccc(SC(F)(F)F)cc2)C2CCC21 (single isomer, unassigned) [compound 159, 4-(cyclopropyl(cis, cis-3-(4-((trifluoromethyl)thio)benzoyl)-1,2,2a,3,8,8a-hexahydrocyclobuta[b]quinolin-8-yl)amino)-4-oxobutanoic acid]
201 to 7500 nM	CC12CCCC1N(C(=O)OCc1ccccc1)c1ccccc1C2N(C(=O)CCC(=O)O)C1CC1 (single isomer, unassigned) [compound 160, 4-((cis, cis-4-((benzyloxy)carbonyl)-9a-methyl-2,3,3a,4,9,9a-hexahydro-1H-cyclopenta[b]quinolin-9-yl)(cyclopropyl)amino)-4-oxobutanoic acid]
20.1 to 200 nM	CC12CCCC1N(C(=O)OCc1ccccc1)c1ccccc1C2N(CCCC(=O)O)C1CC1 (single isomer, unassigned) [compound 161, 4-((cis, cis-4-((benzyloxy)carbonyl)-9a-methyl-2,3,3a,4,9,9a-hexahydro-1H-cyclopenta[b]quinolin-9-yl)(cyclopropyl)amino) butanoic acid]
5.1 to 20 nM	O=C(O)CCC(=O)N(C1CC1)C1c2ccccc2N(C(=O)c2ccc(C3CC3)cc2)C2CCCC21 (single isomer, unassigned) [compound 162, 4-(cyclopropyl(cis, cis-4-(4-cyclopropylbenzoyl)-2,3,3a,4,9,9a-hexahydro-1H-eyclopenta[b]quinolin-9-yl)amino)-4-oxobutanoic acid]
20.1 to 200 nM	O=C(O)CCC(=O)N(C1CC1)C1c2ccccc2N(C(=O)c2ccc(C(F)(F)F)nc2)C2CCCC21 (single isomer, unassigned) [compound 163, 4-(cyclopropyl(cis, cis-4-(6-(trifluoromethyl)nicotinoyl)-2,3,3a,4,9,9a-hexahydro-1H-cyclopenta[b]quinolin-9-yl)amino)-4-oxobutanoic acid]
5.1 to 20 nM	CCN(C(=O)CCC(=O)O)C1c2cc(F)ccc2N(C(=O)c2ccc(SC(F)(F)F)cc2)C2CCC12 (single isomer, unassigned) [compound 164, 4-(ethyl(cis, cis-6-fluoro-3-(4-((trifluoromethyl)thio)benzoyl)-1,2,2a,3,8,8a-hexahydrocyclobuta[b]quinolin-8-yl)amino)-4-oxobutanoic acid]
1 to 5 nM	CCN(C(=O)CCC(=O)O)[C@H]1c2cc(F)ccc2N(C(=O)c2ccc(SC(F)(F)F)cc2)[C@H]2CCC[C@@H]12 (single isomer, unassigned) [compound 165]
5.1 to 20 nM	O=C(O)CCC(=O)N(C1CC1)[C@H]1c2cc(F)ccc2N(C(=O)c2ccc(SC(F)(F)F)cc2)[C@H]2CCC[C@H]21 (single isomer, unassigned) [compound 166]
5.1 to 20 nM	O=C(O)CCC(=O)N(C1CC1)C1c2cc(F)ccc2N(C(=O)c2ccc(SC(F)(F)F)cc2)C2CCC21 (single isomer, unassigned) [compound 167, 4-(cyclopropyl(cis, cis-6-fluoro-3-(4-((trifluoromethyl)thio)benzoyl)-1,2,2a,3,8,8a-hexahydrocyclobuta[b]quinolin-8-yl)amino)-4-oxobutanoic acid]
20.1 to 200 nM	O=C(O)CCC(=O)N(C1CC1)C1c2cc(C3CC3)ccc2N(C(=O)c2ccc(OC(F)(F)F)cc2)C2CCCC21 (single isomer, unassigned) [compound 168, 4-(cyclopropyl(cis, cis-7-cyclopropyl-4-(4-(trifluoromethoxy)benzoyl)-2,3,3a,4,9,9a-hexahydro-1H-cyclopenta[b]quinolin-9-yl)amino)-4-oxobutanoic acid]
201 to 7500 nM	O=C(O)CCC(=O)N(C1CC1)C1c2cc(-c3cncnc3)ccc2N(C(=O)c2ccc(OC(F)(F)F)cc2)C2CCCC21 (single isomer, unassigned) [compound 169, 4-(cyclopropyl(cis, cis-7-(pyrimidin-5-yl)-4-(4-(trifluoromethoxy)benzoyl)-2,3,3a,4,9,9a-hexahydro-1H-cyclopenta[b]quinolin-9-yl)amino)-4-oxobutanoic acid]
5.1 to 20 nM	O=C(O)CCC(=O)N(C1CC1)C1c2ccc(Cl)cc2N(C(=O)C2CCCc3ccccc32)C2CCCC21 (stereo not drawn) [17DJ, 4-[[cis,cis-6-chloro-2,3,3a,4,9,9a-hexahydro-4-[(1,2,3,4-tetrahydro-1-naphthalenyl)carbonyl]-1H-cyclopenta[b]quinolin-9-yl]cyclopropylamino]-4-oxobutanoic acid]
1 to 5 nM	O=C(O)CCC(=O)N(C1CC1)C1c2ccc(Cl)cc2N(C(=O)C2CCc3ccccc3C2)C2CCCC21 (stereo not drawn) [17DL, 4-[[cis,cis-6-chloro-2,3,3a,4,9,9a-hexahydro-4-[(1,2,3,4-tetrahydro-2-naphthalenyl)carbonyl]-1H-cyclopenta[b]quinolin-9-yl]cyclopropylamino]-4-oxobutanoic acid]
1 to 5 nM	C[C@H](OC(=O)N1c2cc(Cl)c(F)cc2C(N(C(=O)CCC(=O)O)C2CC2)C2CCCC21)c1ccc(F)cc1 (stereo partly drawn) [22i, 4-[1(S)-(4-fluorophenyl)ethyl] cis, cis-[(3-carboxy-1-oxopropyl)cyclopropylamino]-6-chloro-7-fluoro-1,2,3,3a,9,9a-hexahydro-4H-cyclopenta[b]quinoline-4-carboxylate]
20.1 to 200 nM	C[C@@H](OC(=O)N(C1CC1)C1c2ccccc2N(C(=O)OCc2ccccc2)C2CCCC21)C(=O)O (stereo partly drawn) [32C, 4-(phenylmethyl) cis, cis-[[(1R)-carboxyethoxy)carbonyl] cyclopropylamino]-1,2,3,3a-9,9a-hexahydro-4H-cyclopenta[b]quinoline-4-carboxylate]
20.1 to 200 nM	C[C@H](OC(=O)N(C1CC1)C1c2ccccc2N(C(=O)OCc2ccccc2)C2CCCC21)C(=O)O (stereo partly drawn) [compound 32, 4-(Phenylmethyl)cis,cis-[[(1(S)-carboxyethoxy)carbonyl]cyclopropylamino]-1,2,3,3a,9,9a-hexahydro-4H-cyclopenta[b]quinoline-4-carboxylate]

Structure (SMILES)	Ki
O=C(O)CCCN(C1CC1)[C@H]1c2cc(F)ccc2N(C(=O)c2ccc(OC(F)(F)F)cc2)[C@H]2CCC[C@H]21 (single isomer, unassigned) [compound 170]	1 to 5 nM
CS(=O)(=O)NC(=O)CCC(=O)N(C1CC1)[C@H]1c2cc(F)ccc2N(C(=O)c2ccc(OC(F)(F)F)cc2)[C@H]2CCC[C@H]21 [compound 11, N1-cyclopropyl-N1-((3aS,9R,9aR)-7-fluoro-4-(4-(trifluoromethoxy)benzoyl)-2,3,3a,4,9,9a-hexahydro-1H-cyclopenta[b]quinolin-9-yl)-N4-(methylsulfonyl)succinamide]	201 to 7500 nM
O=C(O)CCC(=O)N(C1CC1)[C@H]1c2cc(F)ccc2N(C(=O)c2ccc(OC(F)(F)F)cc2)[C@H]2CCC[C@H]21 [compound 17, 4-(cyclopropyl((3aS,9R,9aR)-7-fluoro-4-(4-(trifluoromethoxy)benzoyl)-2,3,3a,4,9,9a-hexahydro-1H-cyclopenta[b]quinolin-9-yl)amino)-4-oxobutanoic acid]	5.1 to 20 nM
